# Screen size: about 310,000 compounds; about 2,200 (0.71%) showed an effect of 50% or more. The effect is printed as a negative number. The list shows a part of the results.
# Biological target: human ether-à-go-go-related gene (hERG) potassium channel (human, UniProt Q12809)
# Test: primary screen, population patch clamp on CHO cells stably expressing hERG
# Sequence of human ether-à-go-go-related gene (hERG) potassium channel (Q12809 whole entry, looked up): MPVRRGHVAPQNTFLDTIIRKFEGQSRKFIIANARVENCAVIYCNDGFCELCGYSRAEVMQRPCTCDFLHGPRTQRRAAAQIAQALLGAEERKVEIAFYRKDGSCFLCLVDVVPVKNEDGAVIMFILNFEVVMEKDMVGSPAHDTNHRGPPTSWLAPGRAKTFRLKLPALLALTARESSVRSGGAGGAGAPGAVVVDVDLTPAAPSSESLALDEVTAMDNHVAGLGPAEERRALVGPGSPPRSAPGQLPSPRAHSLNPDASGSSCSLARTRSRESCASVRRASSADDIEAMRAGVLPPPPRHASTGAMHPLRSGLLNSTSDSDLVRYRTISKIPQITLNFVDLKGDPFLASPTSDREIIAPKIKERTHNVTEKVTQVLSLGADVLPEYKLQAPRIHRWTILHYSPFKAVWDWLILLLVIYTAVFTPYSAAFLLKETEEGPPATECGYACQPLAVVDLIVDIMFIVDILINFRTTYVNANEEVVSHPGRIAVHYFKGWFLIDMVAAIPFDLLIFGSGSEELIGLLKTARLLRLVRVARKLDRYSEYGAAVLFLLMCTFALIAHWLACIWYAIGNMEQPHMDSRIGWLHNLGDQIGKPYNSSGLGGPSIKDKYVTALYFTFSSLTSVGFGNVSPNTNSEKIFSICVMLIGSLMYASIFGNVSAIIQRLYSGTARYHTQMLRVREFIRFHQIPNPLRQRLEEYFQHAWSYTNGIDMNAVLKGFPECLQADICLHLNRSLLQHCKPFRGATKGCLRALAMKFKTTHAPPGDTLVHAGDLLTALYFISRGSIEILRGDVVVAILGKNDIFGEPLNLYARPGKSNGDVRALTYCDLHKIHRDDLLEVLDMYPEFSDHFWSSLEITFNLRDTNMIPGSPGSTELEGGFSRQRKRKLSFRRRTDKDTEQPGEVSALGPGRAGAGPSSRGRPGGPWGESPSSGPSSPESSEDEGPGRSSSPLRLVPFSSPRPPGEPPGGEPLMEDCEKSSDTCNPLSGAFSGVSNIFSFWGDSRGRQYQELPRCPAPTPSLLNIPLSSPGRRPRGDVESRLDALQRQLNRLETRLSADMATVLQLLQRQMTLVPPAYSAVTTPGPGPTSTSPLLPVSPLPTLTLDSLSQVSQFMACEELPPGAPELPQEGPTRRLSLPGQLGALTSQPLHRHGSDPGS
row,SMILES,"hERG current change (%, negative = inhibition) at 1uM [%]"
1,Cc1ccc(Cn2cc(C=O)c(-c3ccc(C)cc3)n2)cc1,14.7
2,COc1ccccc1CN(C)C(=O)c1ccc(COc2ccccc2)cc1,11.5
3,Cc1nc2sc(-c3ccccc3)cc2c(=O)[nH]1,14.8
4,COc1ccccc1-c1ccc(=O)n(CC(=O)NCc2ccc3c(c2)OCO3)n1,2.69
5,CCN(CC)C(=S)SCC(=O)Nc1nc(=O)c2ccccc2s1,4.18
6,COC(=O)c1[nH]c2cccc(OC)c2c1NC(=O)CN(C)CC1OCCO1,-4.76
7,Cc1nc(NCCc2ccc(F)cc2)c2nnn(Cc3ccccc3)c2n1,7.92
8,CCOc1ccc(-n2nc3c(Cl)nnc(C)c3c2C)cc1,7.75
9,CCOc1ccc(OCCNCc2ccc(OC(C)C(=O)N(C)C)c(OCC)c2)cc1.O=C(O)C(=O)O (centres unmarked),6.58
10,CCc1cccc2c(C(=O)CSc3nncn3-c3ccccc3OC)c[nH]c12,-6.68
11,CCOc1cc(C(=S)N2CCCC2)ccc1O,13.4
12,O=P(c1cccs1)(c1cccs1)c1cccs1,-4.99
13,CCOc1ccccc1/C=N/NC(=O)Cc1csc(Nc2cccc(C(F)(F)F)c2)n1,0.968
14,Cc1ccc(S(=O)(=O)N/N=C/c2ccc(OCC(=O)N3CCOCC3)cc2)cc1,14.7
15,CC(C)N(Cc1nc(-c2ccccc2)no1)C(=O)CCCN1C(=O)c2ccccc2C1=O,-6.95
16,CN(CC(=O)NCc1cccnc1)S(=O)(=O)c1ccc(F)cc1,14.6
17,CCc1noc(N)c1C(=O)Nc1ccc(Cl)cc1,6.37
18,COC(=O)c1ccccc1OCC(=O)NC1CCCCC1,3.56
19,CC(=O)NC1C(OC(=O)Cc2ccccc2)OC(COC(C)=O)C(OC(C)=O)C1OC(C)=O (centres unmarked),8.61

row,SMILES,"hERG current change (%, negative = inhibition) at 1uM [%]"
1,O=C(Nc1nc(-c2cccnc2)cs1)c1ccccc1[N+](=O)[O-],11.9
2,COc1ccccc1NC(=O)Nc1nc(CC(=O)Nc2ccccc2F)cs1,14.4
3,COCc1c(C(=O)N2CCN(CCOc3ccccc3)CC2)oc2ccccc12,-34.6
4,O=C(O)c1ccc(/C=C2\COc3ccccc3C2=O)cc1,9.08
5,CC(C)(C)NC(=O)C1CN(S(=O)(=O)c2ccccc2)CCN1S(=O)(=O)c1ccccc1 (centres unmarked),5.13
6,CCOC(=O)c1cc(-c2ccc(C)cc2)n(CCC(=O)NCCN(C)C)c1C,-7.46
7,CCN(CC(=O)Nc1ccc(NC(C)=O)cc1)C(=O)c1cccnc1Sc1ccc(C)c(C)c1,6.21
8,COc1cccc(N2C(=O)C3C(C2=O)C2C=CC3C23CC3)c1 (centres unmarked),10
9,COc1ccccc1/C=C/CN1CCC(n2nccc2NC(=O)C2CC2)CC1,-37.8
10,Cc1cc(C)c2c(=O)[nH]c(SCc3ccccc3C)nc2n1,15
11,CCOC(=O)C(=NC1CCS(=O)(=O)C1)NNc1ccc(Br)cc1 (centres unmarked),7.49
12,CCC1Oc2ccc(C)cc2N(CC(=O)NCCCN2CCCCC2CC)C1=O (centres unmarked),1.52
13,CC1(C)C2CCC1(C)C(OC(=O)CSc1nc(N)cc(=O)[nH]1)C2 (centres unmarked),10.2
14,O=C(NCc1n[nH]c(=S)n1-c1ccc(F)cc1)c1ccc(S(=O)(=O)N2CCOCC2)cc1,12.1
15,COc1ccccc1N1CCN(C(=O)C(C)CS(=O)(=O)c2ccc3c(c2)NC(=O)CS3)CC1 (centres unmarked),10.8
16,CC(=O)Nc1ccc(NC(=O)C(C)OC(=O)C2CCCC2)cc1 (centres unmarked),19.1
17,CC1(c2ccc(OC(F)F)cc2)NC(=O)N(CC(=O)c2ccc3c(c2)OCO3)C1=O (centres unmarked),-12.5
18,CCO[C@H]1OC(C(=O)Nc2ccccc2)=C[C@@H](c2csc3ccccc23)[C@@H]1CCCO,17.9
19,O=C(O)c1ccc(S(=O)(=O)c2ccc3c(c2)C(=O)N(NC(=O)c2ccncc2)C3=O)cc1,5.01

row,SMILES,"hERG current change (%, negative = inhibition) at 1uM [%]"
1,CC(C)(C)n1nnnc1C(c1cccc(C(F)(F)F)c1)N1CCC(O)CC1 (centres unmarked),4.89
2,CCOC(=O)Nc1cccc(Cl)c1C,13.3
3,O=C(Cc1ccc(S(=O)(=O)N2CCCC2)s1)N1CCN(c2ccccc2)CC1,10.9
4,CCc1cccc2c(C(=O)CSc3nnc(-c4ccoc4C)n3C)c[nH]c12,3
5,Cc1ccc(C2C(C#N)=C(N)N(c3cccnc3)C3=C2C(=O)CCC3)s1 (centres unmarked),12
6,O=C(C[n+]1cc(Br)cc2ccccc21)c1ccc(F)cc1.[Br-],1.5
7,COc1ccc(C2C(C(=O)c3ccco3)=C(O)C(=O)N2Cc2cccnc2)cc1OC (centres unmarked),11.2
8,NC(=O)c1cc2cc(Cl)ccc2oc1=O,8.58
9,Cl.c1ccc(CSCc2cn3ccccc3n2)cc1,12.7
10,Cc1cccc(NC(=S)NCc2ccc3c(c2)OCO3)c1,10.1
11,O=C(COC(=O)C1CC(O)CN1C(=O)Oc1ccccc1)c1ccc(Br)cc1 (centres unmarked),4.64
12,NC(=O)NC(CC(=O)NCCCc1ccccc1)c1ccc(Cl)cc1 (centres unmarked),6.05
13,Cc1ccccc1NC(=O)c1ccccc1NS(=O)(=O)c1cccc2cccnc12,9.18
14,COC(C[C@@H](O)C[C@@H](O)[C@@H](C)OCc1ccccc1)OC,12.9
15,O=C(CSc1nnc(-c2ccc(F)cc2)n1CC1CCCO1)NCc1ccco1 (centres unmarked),13.4
16,O=C(Nc1ccc(Cl)cc1C(=O)N1CCCCC1)c1ccco1,13.2
17,O=C(Nc1nc2c(s1)CCCC2)c1cccnc1,-1.52
18,CCC(=O)Nc1ccc(Oc2ccc(NC(=O)CC)c(NC(=O)CC)c2)cc1,8.73

# — paper PMC4336329 (PLoS ONE, 2015)
